The values below come from patent US20230331809A1 (Zymeworks, published 2023).

The target in assay [1] is T1, cMet (tyrosine-protein kinase Met) on EBC1 cells (UniProt P08581).
T1 construct: whole, on cells
The experiment in a line: flow cytometry on EBC1 cells (cMet), MFI; * poor fit.

The target of assay [2] is T1, cMet (tyrosine-protein kinase Met) on …. The experiment in a line: flow cytometry on EBC1 cells (cMet), MFI; reference sample. Background: In flow cytometry, cells or beads pass a laser one at a time.
The target is the same in assay [3]. In words: flow cytometry on EBC1 cells (cMet), MFI.

T1 sequence (P08581 25-1390 limits assumed): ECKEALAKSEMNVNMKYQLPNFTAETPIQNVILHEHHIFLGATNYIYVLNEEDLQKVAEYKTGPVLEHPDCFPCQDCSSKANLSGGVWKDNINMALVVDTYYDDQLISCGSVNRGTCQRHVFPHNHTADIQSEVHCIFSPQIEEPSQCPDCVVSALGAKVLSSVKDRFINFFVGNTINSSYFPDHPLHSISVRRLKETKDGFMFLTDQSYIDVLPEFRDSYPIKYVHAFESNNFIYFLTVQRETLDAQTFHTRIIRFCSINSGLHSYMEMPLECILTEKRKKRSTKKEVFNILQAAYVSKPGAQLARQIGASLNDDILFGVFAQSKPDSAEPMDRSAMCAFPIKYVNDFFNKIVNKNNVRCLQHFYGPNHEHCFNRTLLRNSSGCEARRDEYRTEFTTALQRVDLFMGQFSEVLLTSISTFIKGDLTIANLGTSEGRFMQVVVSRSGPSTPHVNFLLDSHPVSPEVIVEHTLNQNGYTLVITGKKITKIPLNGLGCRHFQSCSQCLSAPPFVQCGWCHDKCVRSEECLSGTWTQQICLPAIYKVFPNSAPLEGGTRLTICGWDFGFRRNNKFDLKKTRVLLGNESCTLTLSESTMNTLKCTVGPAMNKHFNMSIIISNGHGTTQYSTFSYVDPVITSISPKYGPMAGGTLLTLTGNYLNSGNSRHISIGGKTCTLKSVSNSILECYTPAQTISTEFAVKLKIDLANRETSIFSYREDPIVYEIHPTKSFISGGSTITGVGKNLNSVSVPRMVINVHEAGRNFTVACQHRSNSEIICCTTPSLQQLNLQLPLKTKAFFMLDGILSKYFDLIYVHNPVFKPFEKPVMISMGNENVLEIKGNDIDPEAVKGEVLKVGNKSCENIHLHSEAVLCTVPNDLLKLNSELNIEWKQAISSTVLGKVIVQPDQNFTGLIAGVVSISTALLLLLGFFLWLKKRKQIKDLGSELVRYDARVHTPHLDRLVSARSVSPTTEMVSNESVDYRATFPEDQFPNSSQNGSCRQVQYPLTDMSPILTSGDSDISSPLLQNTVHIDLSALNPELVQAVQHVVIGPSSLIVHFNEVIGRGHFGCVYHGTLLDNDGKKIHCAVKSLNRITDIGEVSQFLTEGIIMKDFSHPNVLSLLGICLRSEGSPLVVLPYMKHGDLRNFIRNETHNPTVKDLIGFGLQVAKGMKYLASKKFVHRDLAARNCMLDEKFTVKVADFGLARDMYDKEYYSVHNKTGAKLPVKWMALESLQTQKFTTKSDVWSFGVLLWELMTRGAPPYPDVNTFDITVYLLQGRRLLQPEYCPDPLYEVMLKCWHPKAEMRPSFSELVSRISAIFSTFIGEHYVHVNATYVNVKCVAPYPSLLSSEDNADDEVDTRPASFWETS

B1: Variant 28647: HA PD-1:WT PD-L1 masked acMet Mab, uncleavable (antibody)
heavy: [about 120 residues not shown]AAAKEAAAKQVQLVQSGAEVKKPGASVKVSCKASGYIFTAYTMHWVRQAPGQGLEWMGWIKPNNGLANYAQKFQGRVTMTRDTSISTAYMELSRLRSDDTAVYYCARSEITTEFDYWGQGTLVTVSSASTKGPSVFPLAPSSKSTSGGTAALGCLVKDYFPEPVTVSWNSGALTSGVHTFPAVLQSSGLYSLSSVVTVPSSSLGTQTYICNVNHKPSNTKVDKRVEPKSCDCH[human IgG1 Fc not shown]
light: AFTVTVPKDLYVVEYGSNMTIECKFPVEKQLDLAALIVYWEMEDKNIIQFVHGEEDLKVQHSSYRQRARLLKDQLSLGNAALQITDVKLQDAGVYRCMISYGGADYKRITVKVNAEAAAKEAAAKDIVMTQSPDSLAVSLGERATINCKSSESVDSYANSFLHWYQQKPGQPPKLLIYRASTRESGVPDRFSGSGSGTDFTLTISSLQAEDVAVYYCQQSKEDPLTFGGGTKVEIKRTVAAPSVFIFPPSDEQLKSGTASVVCLLNNFYPREAKVQWKVDNALQSGNSQESVTEQDSKDSTYSLSSTLTLSKADYEKHKVYACEVTHQGLSSPVTKSFNRGEC
In general, EC50 refers to the midpoint of the concentration-response curve. A higher EC50 goes with lower potency in that assay. As to B1, in assay [1], the EC50 was more than 100 nM and the “Fold wrt WT” value is more than 71 fold.

B2: Variant 17606: Unmasked acMet mAb (antibody)
heavy: GQVQLVQSGAEVKKPGASVKVSCKASGYIFTAYTMHWVRQAPGQGLEWMGWIKPNNGLANYAQKFQGRVTMTRDTSISTAYMELSRLRSDDTAVYYCARSEITTEFDYWGQGTLVTVSSASTKGPSVFPLAPSSKSTSGGTAALGCLVKDYFPEPVTVSWNSGALTSGVHTFPAVLQSSGLYSLSSVVTVPSSSLGTQTYICNVNHKPSNTKVDKRVEPKSCDCH[human IgG1 Fc not shown]
light: GDIVMTQSPDSLAVSLGERATINCKSSESVDSYANSFLHWYQQKPGQPPKLLIYRASTRESGVPDRFSGSGSGTDFTLTISSLQAEDVAVYYCQQSKEDPLTFGGGTKVEIKRTVAAPSVFIFPPSDEQLKSGTASVVCLLNNFYPREAKVQWKVDNALQSGNSQESVTEQDSKDSTYSLSSTLTLSKADYEKHKVYACEVTHQGLSSPVTKSFNRGEC
In the case of B2, the “Fold wrt WT” value in assay [2] was 1 fold. In assay [3], this molecule displayed an EC50 of 1.4 nM.
